Screen size: about 310,000 compounds; about 2,200 (0.71%) showed an effect of 50% or more. The effect is printed as a negative number. The list shows a part of the results.
biological target: human ether-à-go-go-related gene (hERG) potassium channel (human, UniProt Q12809); assay: primary screen, population patch clamp on CHO cells stably expressing hERG
Sequence (Q12809 whole entry, looked up): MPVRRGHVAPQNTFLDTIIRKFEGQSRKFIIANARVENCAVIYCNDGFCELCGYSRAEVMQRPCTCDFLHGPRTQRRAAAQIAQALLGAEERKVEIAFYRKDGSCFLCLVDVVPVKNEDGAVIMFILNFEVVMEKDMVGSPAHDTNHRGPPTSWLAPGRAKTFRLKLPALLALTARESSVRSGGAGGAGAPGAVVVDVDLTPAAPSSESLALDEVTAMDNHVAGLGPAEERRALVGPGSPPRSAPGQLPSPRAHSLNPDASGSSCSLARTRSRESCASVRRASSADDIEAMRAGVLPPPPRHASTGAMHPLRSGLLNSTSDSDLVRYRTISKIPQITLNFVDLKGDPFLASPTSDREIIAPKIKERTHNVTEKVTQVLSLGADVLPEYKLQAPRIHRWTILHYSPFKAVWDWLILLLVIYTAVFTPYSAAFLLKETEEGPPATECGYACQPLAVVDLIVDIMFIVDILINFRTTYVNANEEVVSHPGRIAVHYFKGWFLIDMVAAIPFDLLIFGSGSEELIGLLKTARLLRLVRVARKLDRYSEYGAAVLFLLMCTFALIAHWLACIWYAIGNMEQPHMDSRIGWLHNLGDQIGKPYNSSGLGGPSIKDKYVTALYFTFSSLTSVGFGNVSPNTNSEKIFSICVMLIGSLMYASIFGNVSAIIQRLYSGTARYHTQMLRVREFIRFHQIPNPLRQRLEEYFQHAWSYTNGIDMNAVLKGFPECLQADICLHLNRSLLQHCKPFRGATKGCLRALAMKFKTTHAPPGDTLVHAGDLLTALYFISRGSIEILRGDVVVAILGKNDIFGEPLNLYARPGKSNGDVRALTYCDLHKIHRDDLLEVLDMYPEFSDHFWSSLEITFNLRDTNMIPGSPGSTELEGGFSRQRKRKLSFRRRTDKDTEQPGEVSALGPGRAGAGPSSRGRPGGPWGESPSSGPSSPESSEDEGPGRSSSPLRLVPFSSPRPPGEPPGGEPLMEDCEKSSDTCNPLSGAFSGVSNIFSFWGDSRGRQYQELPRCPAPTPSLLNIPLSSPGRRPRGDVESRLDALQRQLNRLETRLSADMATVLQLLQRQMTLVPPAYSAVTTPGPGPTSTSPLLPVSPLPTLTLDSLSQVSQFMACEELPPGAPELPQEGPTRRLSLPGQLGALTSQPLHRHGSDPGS

Row | Structure (SMILES) | hERG current change (%, negative = inhibition) at 1uM
1 | O=C(O)c1c(-c2ccccc2)c(-c2ccccc2)nc2ccccc12 | 11.1%
2 | Cc1cc(C(=O)NNC(=O)NC(C)C)no1 | 14%
3 | O=C(CC12CC3CC(CC(Br)(C3)C1)C2)Nc1cccc(S(=O)(=O)NC2=NCCC2)c1 | 3.49%
4 | COc1ccc(Nc2cc(C)c3c(O)cccc3n2)cc1 | 3.95%
5 | Clc1ccc(SCCOCCN2CCOCC2)cc1.O=C(O)C(=O)O | 11.2%
6 | Cc1cccc(N2C(=O)C(O)=C(C(=O)c3cccs3)C2c2cccc(Oc3ccccc3)c2)n1 (stereo not drawn) | 10.3%
7 | COc1ccc(Cl)cc1C(=O)N1CCN(c2ccccn2)CC1 | 8.48%
8 | CC(=O)c1cnc2sccn2c1=O | 0.254%
9 | O=c1ccccn1Cc1ccccc1F | 8.81%
10 | CCOC(=O)CSc1nc2sc3c(c2c(=O)n1-c1ccc(OC)cc1)CCN(C)C3 | 10.9%
11 | CCCn1cc(CN2CCCC(C(=O)c3cccc(OC(C)C)c3)C2)c(C)n1 (stereo not drawn) | -1.01%
12 | S=C1Nc2ccccc2Sc2ccc(Cl)cc21 | -2.69%
13 | Nc1c2c(nc3ccc(Br)cc13)N(C1CCCCC1)CC2.O=C(O)C(=O)O | -32.3%
14 | Cc1ccc(C(C(=O)NCc2ccccc2)N(C(=O)c2csnn2)C2CC2)cc1 (stereo not drawn) | 8.21%
15 | Cc1ccc(-c2csc3nc(C(C)C)oc(=O)c23)c(C)c1 | 13.5%
16 | COC(=O)c1ccc(C(=O)OC)c(NC(=O)CN(C)Cc2ccc(Cl)c(Cl)c2)c1 | 15.9%
17 | O=C(CSc1nc2ccccc2c(=O)[nH]1)N1CCN(c2ccccc2)CC1 | 12.9%
18 | CC1CCCCC12NC(=O)N(CC(=O)NCC(=O)Nc1ccc(F)c(F)c1F)C2=O (stereo not drawn) | 16%
19 | COc1ccccc1-n1c(SCC(=O)NC2CCS(=O)(=O)C2)nc2cc([N+](=O)[O-])ccc21 (stereo not drawn) | 6.29%
20 | CC(=O)c1ccc(NC(=O)c2ccc(N3C(=O)c4cccnc4C3=O)cc2)cc1 | 17.5%
21 | Cc1cc(C)c(S(=O)(=O)c2cccc(Br)c2C)c(=O)[nH]1 | 16.1%
22 | O=C(CC(c1cccs1)S(=O)(=O)c1ccccc1)c1ccc(F)cc1 (stereo not drawn) | 14.5%

Row | Structure (SMILES) | hERG current change (%, negative = inhibition) at 1uM
23 | O=C(NCCN1CCN(c2cccc(Cl)c2)CC1)C1CCCN(S(=O)(=O)c2cnc[nH]2)C1 (stereo not drawn) | 1.46%
24 | COc1ccc(C2N=C(N)N=C(N)N2c2ccccc2)cc1OC.Cl (stereo not drawn) | 9.48%
25 | COCCn1c(-c2ccccc2)nc2oc3cc(OC)ccc3c(=O)c2c1=O | 6.17%
26 | CN(C)C(CNC(=O)c1ccc(S(=O)(=O)Nc2ccccc2F)cc1)c1ccco1 (stereo not drawn) | 3.41%
27 | CC(C)c1ccc(/C=C/C(=O)NCCCc2ccccc2)cc1 | 4.82%
28 | COc1ccc(/C=C2\SC(=S)N(CCC(=O)NC3CCCC3)C2=O)cc1OC | 2.91%
29 | CCn1cnc2c1c(=O)n(CC(=O)NCc1ccccc1)c(=O)n2Cc1ccccc1 | 11.8%
30 | Cc1cccc(N2CCN(S(=O)(=O)c3cc(-c4cc(C)no4)ccc3C)CC2C)c1 (stereo not drawn) | 15.2%
31 | CC(C)(C)OC(=O)N1CCOCCOCCNCCOCCOCC1 | 9.78%
32 | O=C(NCc1ccc2c(c1)OCO2)c1ccc(Br)s1 | 13.2%
33 | CCOC(=O)CN/C=C(\C#N)c1ccc(F)cc1 | -7.46%
34 | O=C(CN1CCCC1)Nc1c(Cl)cccc1Cl | 14.3%
35 | COc1ccc(C(F)(F)F)cc1NC(=O)c1nc2nc(C)cc(C(F)F)n2n1 | 17.2%
36 | COC(=O)CN(c1ccc(C)cc1)S(=O)(=O)c1ccc2c(c1)n(C)c(=O)c(=O)n2C | 5.25%
37 | Cc1onc(-c2ccccc2)c1C(=O)Nc1ccc(S(=O)(=O)Nc2nccs2)cc1 | 8.75%
38 | CN(CC(=O)Nc1cccc(F)c1)C(=O)c1cccnc1Sc1ccc(Cl)cc1 | 4.68%
39 | CC(C)CN(CC(C)C)S(=O)(=O)N1CCC(C(=O)NC2CCCCCCC2)CC1 | 3.39%
40 | O=S(=O)(Cc1ccccc1Cl)N1CCN(Cc2ccc3c(c2)OCO3)CC1 | 9.22%
41 | Cc1cc(Cl)ccc1OCC(=O)Nc1ccccc1C(=O)N1CCOCC1 | 10.4%
42 | Cc1cc(CNC(=O)COC(=O)Cn2[nH]c(=O)c3ccccc3c2=O)cc(C)c1O | 26.2%
43 | COc1ccc(C(=O)NC(C(=O)NCCc2ccc3c(c2)OCCO3)C(C)C)cc1 (stereo not drawn) | 10.2%
44 | O=C(CCCN1C(=O)c2cccc3cccc(c23)C1=O)NCc1cccnc1 | 10.8%

Row | Structure (SMILES) | hERG current change (%, negative = inhibition) at 1uM
45 | CC1CCCN(C(=O)CCNS(=O)(=O)c2ccc3c(c2)oc(=O)n3C)C1 (stereo not drawn) | 16.1%
46 | COc1cc(OC)cc(C(=O)N2CCN(C(=O)c3cccs3)CC2)c1 | 10.1%
47 | Cc1ccc(NCC(=O)N=Nc2c(O)n(C)c3ccccc23)cc1 | 2.3%
48 | COc1cccc(N2CCN(C(=O)C3CCCN(c4ncnc5c4nc4n5CCCCC4)C3)CC2)c1 (stereo not drawn) | -1.74%
49 | CCC(=O)NC(NC(=S)Nc1c(C)n(C)n(-c2ccccc2)c1=O)C(Cl)(Cl)Cl (stereo not drawn) | 6.62%
50 | CN1CC(C(=O)O)Cc2c1ccc1ccccc21 (stereo not drawn) | 12.5%
51 | Cn1c(C(=O)OC(C(=O)NC2CCCCC2)c2ccncc2)cc2sccc21 (stereo not drawn) | 8.87%
52 | CCc1nnc(NC(=O)COc2ccccc2[N+](=O)[O-])s1 | 6.91%
53 | O=C(Cc1sc(Nc2ccccc2)nc1-c1ccccc1)NCc1ccccc1 | 11.8%
54 | COc1cccc(C(=O)N(c2ccc(OC)cc2OC)C2C=CS(=O)(=O)C2)c1 (stereo not drawn) | -6.31%
55 | Cc1cccc(NC(=O)NC2(C(=O)NCc3ccco3)CCCCC2)c1 | 2.75%
56 | Cc1ccc(-n2c(C)nc3c(cnn3-c3ccc(F)cc3)c2=O)cc1 | 8.76%
57 | COc1ccc(C(=O)Nc2cccc(NC(=O)c3cccs3)c2)cc1 | 2.36%
58 | COc1ccc(C(=O)c2nccc3ccccc23)cc1 | 10.8%
59 | COc1ccccc1CNC(=O)CSc1nc(-c2ccccc2)cn1N | 10.1%
60 | Cn1c(SCc2ccc(F)cc2)nnc1-c1cccs1 | -2.34%
61 | Cc1cc(N2CCOCC2)nc(NCc2ccccc2)n1 | -3.12%
62 | O=C(O)C1Nc2c(O)cc(Cl)c([N+](=O)[O-])c2C2C=CCC12 (stereo not drawn) | 16.2%
63 | CC1=Nc2ccccc2/C1=C/c1c(N)n2c(S(=O)(=O)C(C)C)nsc2nc1=O | 20.7%
64 | O=C1CC(c2ccccc2)SC(N(c2ccccc2)c2ccccc2)=N1 (stereo not drawn) | 5.24%
65 | Cc1ccc(NC(=O)NC(=O)CSc2nnnn2C)c(C)c1 | 5.05%
66 | O=C(O)c1ccccc1-c1ccccc1C(=O)Nc1ccc2c(c1)[nH]c(=O)c1ccccc12 | 16%

Row | Structure (SMILES) | hERG current change (%, negative = inhibition) at 1uM
67 | O=C(O)c1ccc(/C=N/NC(=O)c2cc(-c3cccs3)nc3ccccc23)cc1 | 9.19%
68 | CNC(=O)CC(=O)Nc1ccccc1C(=O)O | 22.6%
69 | O=[N+]([O-])c1ccc(Cl)c(Cl)c1Cl | 12.3%
70 | O=C(C1CCCN(S(=O)(=O)c2cnc[nH]2)C1)N1CCN(Cc2ccccc2)CC1 (stereo not drawn) | 12.1%
71 | Cn1c(-c2ccc(Br)cc2)cnc1NCc1cccnc1 | -14.3%
72 | CN1CCN(C(=O)c2ccc(CSc3nc4ccncc4n3Cc3ccc(F)cc3)cc2)CC1 | 8%
73 | Cc1cc(C(=O)CSC(C)c2nc3ccccc3c(=O)[nH]2)c(C)n1C (stereo not drawn) | 10.4%
74 | COc1cc(C(=O)NCc2nnc(SCC(=O)Nc3c(C)cc(C)cc3C)o2)cc(OC)c1OC | 33.9%
75 | COc1ccc(C2c3ccc(O)cc3Oc3ncn(CCCO)c(=N)c32)cc1 (stereo not drawn) | 8.07%
76 | Cc1cc(C)cc(NC(=O)c2cccc(NC(=O)c3ccco3)c2)c1 | -7.71%
77 | COc1ccc(CCNC(=O)c2c[nH]c3ccc(F)cc3c2=O)cc1OC | 13.6%
78 | CC(C)C1C(C#N)=C(N)SC(N)=C1C#N | 17.6%
79 | O=C(CN(c1ccccn1)S(=O)(=O)c1ccc(F)cc1)Nc1ccc(F)cc1F | -3.5%
80 | O=C(NCC(=O)N1CCCC1)c1cccs1 | 3%
81 | O=C(NC1CCCCC1)c1cc(F)cc2c1OCOC2 | 14.6%
82 | COc1ccc(-c2nonc2NC(=O)c2oc3ccc(F)cc3c2C)cc1OC | 14.4%
83 | COc1cc(C(=O)N/N=C/c2sc(N3CCOCC3)nc2-c2ccccc2)cc(OC)c1OC | 13.7%
84 | CCN(c1ccccc1)S(=O)(=O)c1ccc(Cl)nc1 | 8.88%
85 | Nc1ccc2nc(CCCCCCCCc3nc4ccc(N)cc4[nH]3)[nH]c2c1 | 9.23%
86 | O=C(NCc1ccccc1Cl)C1CCC(CNc2c(N3CCCCC3)c(=O)c2=O)CC1 (stereo not drawn) | 7.95%
87 | CCOC(=O)CN1C(=O)S/C(=C/c2cc(C)n(-c3ccccn3)c2C)C1=O | 0.493%

From PMC4336329 (PLoS ONE, 2015)
